# Results reported in PMC4336329 (PLoS ONE, 2015).
# The campaign covered roughly 310,000 compounds. About 2,200 (0.71%) showed an effect of 50% or more. Effects have a minus sign here. The list shows a part of the results.
# Biological target: human ether-à-go-go-related gene (hERG) potassium channel (human, UniProt Q12809)
# Experiment: primary screen, population patch clamp on CHO cells stably expressing hERG
# Chain of human ether-à-go-go-related gene (hERG) potassium channel (Q12809 whole entry, looked up): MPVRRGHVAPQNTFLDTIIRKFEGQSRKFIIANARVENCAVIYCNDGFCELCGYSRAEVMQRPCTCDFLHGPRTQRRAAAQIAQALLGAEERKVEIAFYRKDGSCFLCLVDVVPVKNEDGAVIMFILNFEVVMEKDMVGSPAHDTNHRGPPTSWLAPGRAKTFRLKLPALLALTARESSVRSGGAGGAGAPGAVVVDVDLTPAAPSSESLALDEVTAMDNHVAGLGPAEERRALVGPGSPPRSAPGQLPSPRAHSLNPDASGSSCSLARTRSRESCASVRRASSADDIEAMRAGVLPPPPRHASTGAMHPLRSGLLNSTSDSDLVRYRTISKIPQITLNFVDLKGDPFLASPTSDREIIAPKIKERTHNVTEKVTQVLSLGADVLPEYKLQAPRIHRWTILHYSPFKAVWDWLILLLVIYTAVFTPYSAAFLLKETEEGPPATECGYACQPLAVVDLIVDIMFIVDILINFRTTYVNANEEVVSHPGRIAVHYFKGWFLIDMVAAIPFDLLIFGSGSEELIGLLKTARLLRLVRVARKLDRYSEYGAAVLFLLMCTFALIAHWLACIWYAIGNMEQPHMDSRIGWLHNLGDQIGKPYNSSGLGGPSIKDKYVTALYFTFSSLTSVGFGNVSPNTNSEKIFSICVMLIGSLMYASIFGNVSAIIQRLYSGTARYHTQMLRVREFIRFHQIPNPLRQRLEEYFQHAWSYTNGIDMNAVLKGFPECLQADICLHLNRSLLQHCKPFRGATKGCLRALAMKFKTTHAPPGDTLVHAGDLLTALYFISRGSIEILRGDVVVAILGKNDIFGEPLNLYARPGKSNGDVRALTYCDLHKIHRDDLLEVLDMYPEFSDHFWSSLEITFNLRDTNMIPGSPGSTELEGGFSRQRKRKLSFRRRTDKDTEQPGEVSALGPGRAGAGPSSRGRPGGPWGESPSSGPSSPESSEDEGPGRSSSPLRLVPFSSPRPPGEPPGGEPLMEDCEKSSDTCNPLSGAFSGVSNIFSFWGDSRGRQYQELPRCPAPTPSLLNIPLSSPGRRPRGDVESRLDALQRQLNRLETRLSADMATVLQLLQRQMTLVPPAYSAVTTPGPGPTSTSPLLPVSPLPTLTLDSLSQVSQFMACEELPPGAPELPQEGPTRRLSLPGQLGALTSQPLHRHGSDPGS
row,SMILES,"hERG current change (%, negative = inhibition) at 1uM"
1,Cc1cccc(Oc2ccc(NC(=O)C3=CC=CN4CCS(=O)(=O)N=C34)cc2)c1,9.88%
2,Cn1c(=O)c([N+](=O)[O-])c(NCc2ccccc2)c2ccccc21,4.1%
3,Cc1sc(NC(=S)NC(=O)c2cccs2)nc1-c1ccc(C(C)C)cc1,10.4%
4,Cn1c(SCc2cccc(F)c2)nnc1-c1ccccn1,10.5%
5,Cc1ccc(CSCc2ccc(C(=O)NCC3CCCO3)o2)cc1 (stereo not shown),-2.71%
6,O=S(=O)(c1ccc(N2CCCC2)nc1)N1CCCC1,13%
7,COc1ccc(OCC(=O)N2CCN(C(=O)c3cccc4ccccc34)CC2)cc1,9.19%
8,CS(=O)(=O)N(CC(=O)NCC1CCCO1)c1cc(Cl)cc(Cl)c1 (stereo not shown),3.81%
9,Cn1ncc(N=Cc2c(O)ccc3ccccc23)c1C(=O)Nc1cccc(Cl)c1,9.29%
10,CCCC(=O)Nc1nnc(SCC(=O)N2CCN(c3ccccc3)CC2)s1,16.3%
11,C/C=C\C(=O)Nc1cccc(C2=NOC3(C2)C[C@H](C(N)=O)N(C(=O)[C@H]2CCC(=O)N2)C3)c1 (stereo partly shown),7.03%
12,COc1ccccc1C(=O)Oc1ccc(N2C(=O)CCC2=O)cc1,4.34%
13,Cc1c(OCC(=O)N(C)C)ccc2c3c(c(=O)oc12)CCCCC3,-0.741%
14,CC1CC(OCC(O)CN2CCCCC2C)CC(C)(C)C1.Cl (stereo not shown),0.063%
15,CCOc1ccc(S(=O)(=O)N2CCCC2)cc1,-1.29%
16,O=C(NNC(=O)C1CC=CCC1)c1cccc(Br)c1 (stereo not shown),6.11%
17,NS(=O)(=O)c1cnccc1Nc1cccc(F)c1,11.6%
18,CCCc1cc(C(=O)Nc2ccc(C(C)=O)cc2)no1,10.5%
19,COC(CNC(=O)c1cc(Sc2nnc(C)s2)nc2ccccc12)OC,3.39%
20,O=C(NCc1ccccc1)C1(c2cccc(F)c2)CCCC1,6.16%
21,O=C1CN(S(=O)(=O)c2cc(Cl)ccc2Cl)CCN1,9.56%
22,CCC(=O)Nc1nnc(S(=O)(=O)N(CC)c2ccc(OC)cc2)s1,23.9%

row,SMILES,"hERG current change (%, negative = inhibition) at 1uM"
1,CCOc1ccccc1CNc1nc2ccccc2n1C,8.6%
2,COc1ccc(Oc2ccccc2/C=C/C(=O)O)cc1,17.1%
3,O=C(CN1CCN(c2cccc(Cl)c2)CC1)Nc1nccs1,-6.8%
4,CCOC(=O)CC(=O)CSc1nccc(-c2cccnc2)n1,10.2%
5,CC(NC(=O)c1cccs1)c1n[nH]c(=S)n1C (stereo not shown),12.1%
6,COc1ccccc1C(=O)NCCC(=O)NCCOc1ccccc1,11.5%
7,COc1ccc(/C=N/Nc2nc(N3CCCCC3)nc(N3CCCCC3)n2)cc1[N+](=O)[O-],5.14%
8,Cc1cc(Cl)ccc1OCCCC(=O)N/N=C/c1cccc([N+](=O)[O-])c1,17.2%
9,CCOc1ccc(S(=O)(=O)N2CCCC(C(=O)NCc3ccncc3)C2)cc1C (stereo not shown),18.3%
10,O=c1[nH]c(C2CCN(S(=O)(=O)c3ccccc3F)CC2)nc2c1nnn2Cc1ccc(OC(F)(F)F)cc1,16.7%
11,CC(C)(C)c1cc(NS(=O)(=O)c2ccc(Br)s2)no1,12.7%
12,O=C(NCC(=O)N1CCN(S(=O)(=O)c2ccccc2)CC1)c1ccc2ccccc2c1,-3.38%
13,CCOC(=O)[C@H]1[C@H]2COc3ccccc3[C@@H]2N2C(=O)c3cc(F)c(F)cc3NC(=O)[C@@]12C,7.08%
14,Cn1cccc1/C=N/NC(=O)Cc1cccc2ccccc12,2.03%
15,COc1ccccc1NC(=O)CN1CCC(n2c(C)nc3cc(F)ccc32)CC1,-2.23%
16,CNC(=O)C1CC(=O)N(c2ccc(C)cc2)C1 (stereo not shown),-0.0571%
17,COC(=O)C(c1ccccc1)N(Cc1cccc(CN(C(C(=O)OC)c2ccccc2)S(C)(=O)=O)c1)S(C)(=O)=O (stereo not shown),5.6%
18,O=C(c1cc(-c2ccco2)on1)N1CCN(C(c2ccccc2)c2ccccc2)CC1,0.285%
19,COc1ccc(NC(=S)N2CCN(Cc3ccccc3)CC2)cc1,13.7%
20,O=S(=O)(c1cccc(Cl)c1Cl)N1CCCCC1,5.43%
21,CCOC(=O)C(NC(=O)CC)(Nc1ccc(S(N)(=O)=O)cc1)C(F)(F)F (stereo not shown),5%
22,COc1ccc(C(C)(C)NC(=O)C2CCC(=O)N(CCCN3CCCC3=O)C2)cc1 (stereo not shown),10.8%

row,SMILES,"hERG current change (%, negative = inhibition) at 1uM"
1,Cl.OC(COc1ccc(Cl)cc1)CN1CCN(c2ccccc2)CC1 (stereo not shown),0.0675%
2,CCCCCC/C=N/Nc1nnc(Cc2ccc(OC)c(OC)c2)c(=O)[nH]1,11.3%
3,COc1cccc(NC(=O)c2oc3ccccc3c2NC(=O)C2CC2)c1,6.84%
4,CSCCC(NC(=O)C12CC3CC(CC(C3)C1)C2)C(=O)OCC(=O)c1ccc(Cl)cc1 (stereo not shown),4.99%
5,CCOc1cc(S(=O)(=O)n2cc(-c3ccc(F)cc3)c(N)n2)cc(OCC)c1OCC,18.2%
6,CCCCCCN1C(=O)C(O)=C(C(C)=O)C1c1ccc(Cl)cc1 (stereo not shown),-1.58%
7,C=CCn1nnnc1SCC(=O)Nc1cccc(C(F)(F)F)c1,5.64%
8,COc1ccc(OC)c(NS(=O)(=O)c2ccc(SC)cc2)c1,-0.314%
9,N/C(=N\c1nc2ccccc2o1)NC(=O)c1ccccc1NC(=O)c1ccccc1,12.3%
10,C=CCNC(=O)C1CC(=O)N(c2ccc(OCC(=O)Nc3ccc(Cl)c(C(F)(F)F)c3)cc2)C1 (stereo not shown),6.37%
11,CCCCn1c(N)c(N(CC(C)C)C(=O)c2ccc(OCc3c(C)noc3C)cc2)c(=O)[nH]c1=O,7.88%
12,CC1CCN(CC(=O)N2c3ccccc3CCc3ccccc32)CC1,12%
13,CSc1nsc(SC)c1CO,13.6%
14,O=C(NCc1ccc2c(c1)OCO2)C1CCCN(C(=O)c2ccc(Cl)cc2)C1 (stereo not shown),-4.22%
15,COc1ccc(C)cc1Nc1ccc(C(=O)O)cc1[N+](=O)[O-],8.19%
16,O=C1COc2ccc(C(=O)COC(=O)Cc3ccc(F)cc3)cc2N1,-8.79%
17,O=C(NCc1ccccc1F)C1CCN(S(=O)(=O)c2ccccc2)CC1,-0.959%
18,COc1ccc(Cc2nc3ccc(C(=O)N4CCCC4)cc3o2)cc1OC,16.3%
19,Cc1ccc(C)c(NC(=O)CSc2nc(C)cs2)c1,7.55%
20,CCN(CC)c1ccc(C=NCCNS(=O)(=O)c2ccc(C)cc2)cc1,21.8%
21,COc1ccccc1C(=O)NCCC(=O)N1CC(=O)Nc2ccccc21,14.1%
22,Fc1ccc(NC(=S)Nc2cc(-c3ccccc3)[nH]n2)cc1Cl,9.99%

row,SMILES,"hERG current change (%, negative = inhibition) at 1uM"
1,CC(=O)Nc1sc(N/N=C/c2ccc(O)cc2)nc1-c1ccc(C)cc1,-0.437%
2,O=C(NCc1ccccn1)C(=O)Nc1ccccc1,4.81%
3,Cc1ccc(S(=O)(=O)N(Cc2c(F)cccc2Cl)C(=O)N2CCN(C)CC2)cc1,3.55%
4,Cc1ccccc1NC(=O)c1cc2c(C)nc3ccccc3c2o1,17.2%
5,O=C(NCC(c1ccco1)N1CCN(c2ccccc2F)CC1)c1ccco1 (stereo not shown),3.23%
6,Cc1ccc(S(=O)(=O)NNC(=O)c2cnn(-c3ccccc3)c2-n2cccc2)cc1,-2.33%
7,COc1ccc(/C=C2/C(=O)ON=C2C)cc1Br,14.1%
8,CC(=O)Nc1ccc(NC(=O)c2cc(S(=O)(=O)N3CCCCC3)ccc2C)cc1,7.9%
9,COC(=O)C1Sc2[nH]c(=O)sc2C2c3ccccc3OC(=O)C12 (stereo not shown),-18.8%
10,CCOC(=O)C(=O)N1CCN(c2cc3c(cc2[N+](=O)[O-])n(C)c(=O)n3C)CC1,-2.04%
11,Cc1cc(OCC(=O)Nc2c(C)n(C)n(-c3ccccc3)c2=O)ccc1[N+](=O)[O-],7.71%
12,Cc1nc2ccc(C(=O)NCc3ccc4c(c3)OCO4)cc2s1,11%
13,CNC(=O)CCn1nc(-c2ccc(Cl)cc2)c2ccccc2c1=O,6.83%
14,COc1ccccc1N1CCN(/N=C/c2cccc(Cl)c2)CC1,9.71%
15,CN1CCN(C(=O)CCN2C(=O)/C(=C\c3ccccc3F)SC2=S)CC1,9.46%
16,c1ccc(-n2c(SCc3ccncc3)nnc2-c2ccco2)cc1,-3.95%
17,COc1ccc(S(=O)(=O)NNC(=O)c2cc3cc4ccccc4nc3s2)cc1,7.6%
18,CC(C)[C@H](N)c1cn([C@@H](CO)C(=O)N2CCNCC2)nn1,7.02%
19,CCOC(=O)COc1ccc(Cl)cc1C1NC(=O)NC(C)=C1C(C)=O (stereo not shown),16.7%
20,COC(=O)C1=C(C)NC2=C(C(=O)CC(C)(C)C2)C1c1ccccn1 (stereo not shown),2.31%
21,Cc1ccc([N+](=O)[O-])cc1NC(=O)CCc1ccccc1,8.96%
22,CC(C)(C)c1ccc(S(=O)(=O)N2CCc3nc4ccccc4c(C(=O)O)c3C2)cc1,12%
